Experimental data from PubChem BioAssay AID624417 (National Center for Advancing Translational Sciences (NCATS), 2012).
Out of some 410,000 compounds screened, about 6,400 (1.6%) were called active. The shares of active, inactive and inconclusive entries below differ from those in the screen. The call rests on the fitted dose curve; in most records, active means well fitted inhibition curve with a large enough effect; inconclusive means small, poorly fitted or top-dose-only effect; inactive means no such curve, though single readings can be large or run the other way. Potencies of inconclusive entries are left out as doubtful fits.

biological target: Glucagon-like peptide 1 receptor (Homo sapiens) (UniProt P43220); experiment: qHTS of GLP-1 Receptor Inverse Agonists (Inhibition Mode); conditions: HEK293 GLP-1R CRE-luciferase, luminescence, 24 h, GLP-1R form is constitutively active; activity change, negative = inhibition: at 38.3 µM (top of the series) unless noted; further: nearly all actives have a fitted effect of over 55% in size
UniProt P43220, sequence (P43220 whole entry, looked up): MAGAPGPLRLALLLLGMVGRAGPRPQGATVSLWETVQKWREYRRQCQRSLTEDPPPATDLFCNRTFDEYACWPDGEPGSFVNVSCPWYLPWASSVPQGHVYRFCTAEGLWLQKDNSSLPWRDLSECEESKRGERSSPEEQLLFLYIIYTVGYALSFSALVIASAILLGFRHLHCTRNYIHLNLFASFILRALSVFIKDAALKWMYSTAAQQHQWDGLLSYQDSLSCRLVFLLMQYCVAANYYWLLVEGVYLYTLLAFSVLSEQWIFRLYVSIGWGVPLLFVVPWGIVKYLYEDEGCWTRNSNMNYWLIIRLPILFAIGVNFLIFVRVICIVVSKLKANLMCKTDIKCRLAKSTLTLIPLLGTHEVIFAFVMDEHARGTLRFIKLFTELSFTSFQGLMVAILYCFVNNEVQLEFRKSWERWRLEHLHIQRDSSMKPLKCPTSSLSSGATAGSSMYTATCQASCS
Outline: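 GLP-1R inverse agonism mode: basal reporter luminescence in engineered HEK293 cells measured after one day of compound exposure at 37 deg C, with a 12 min room-temperature detection step.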
On the % scale 0 is the no-effect control and ±100 the full control effect; potency means the concentration at half of the fitted maximal effect; tags describe the fitted curve by direction and shape.

Row | Compound | Potency | activity change, negative = inhibition
1 | COc1ccc(OC)c(NC(=S)N(CCc2c(C)[nH]c3ccccc23)Cc2cccs2)c1 | inconclusive [inhibitor, partial curve, poor fit] | 
2 | CCOC(=O)c1ccc(NC(=O)c2ccc(C)c(S(=O)(=O)N3CCOCC3)c2)cc1 | inconclusive [inhibitor, partial curve, poor fit] | 
3 | CC1CC(C)CN(CCCNC(=O)c2ccc3c(c2)NC(=O)C(N2CCCCC2)S3)C1 (stereo not drawn) | inconclusive [inhibitor, single point] | 
4 | FC(F)(F)c1cccc(-c2cc(C3CCNCC3)[nH]n2)c1 |  | inconclusive: -85.2% [inhibitor]
5 | O=C(Nc1cc(C(F)(F)F)ccc1F)C1Cc2c(-c3ccccc3Oc3ccccc3)ccnc2O1 (stereo not drawn) | inconclusive [inhibitor, partial curve, poor fit] | 
6 | CCn1c(CNc2cccc(Cl)c2)nnc1SCc1ccccc1 | inconclusive [inhibitor, partial curve] | 
7 | CCOc1ccccc1-c1cnc(NC)cn1 |  | inactive: 3.01%
8 | CCC(=O)Nc1sc2c(c1C(=O)Nc1cccc(C)c1)CCCC2 | inconclusive [inhibitor, single point] | 
9 | CSCCC(C(=O)Nc1c(C)cccc1C)N1CCN(c2ccc(F)cc2)CC1 (stereo not drawn) | inconclusive [inhibitor, single point] | 
10 | CCOC(=O)C1=CN(Cc2cccc(F)c2)S(=O)(=O)N(C)C1CCc1ccccc1 (stereo not drawn) | inconclusive [inhibitor, single point] | 
11 | COc1cccc(NC(=O)CC2COc3ccccc3O2)c1 (stereo not drawn) | inconclusive [inhibitor, partial curve] | 
12 | O=C(NCc1ccc(Cl)cc1)c1cccc(S(=O)(=O)N2CCCC2)c1 | inconclusive [inhibitor, single point] | 
13 | O=c1[nH]ncc(N2CCN(C(c3ccccc3)c3ccccc3)CC2)c1Cl | active: 12.6 µM | 
14 | O=C1C(=Cc2ccco2)CCC1=Cc1ccco1 |  | inactive: 8.88%
15 | Cc1ccc(C)c(-n2c(-c3csc(C)c3)n[nH]c2=S)c1 |  | inactive: -30.3%
16 | O=C(Nc1c(Cl)cccc1Cl)c1cc(-c2cccc(O)c2)on1 | inconclusive [inhibitor, single point] | 
17 | O=C(NCC1CCCO1)C1CCCN(S(=O)(=O)c2ccc(Cl)cc2)C1 (stereo not drawn) |  | inactive: -11.7%
18 | CCOC(=O)C1=CN(Cc2cccc(Br)c2)S(=O)(=O)N(CC)C1C (stereo not drawn) | inconclusive [inhibitor, single point] | 
19 | COc1ccc(C2c3[nH]c4ccc(OC)cc4c3CCN2C(=O)Nc2ccccc2)cc1 (stereo not drawn) | active: 5.62 µM | 
20 | COc1cc(C(=O)NCC(c2cccs2)N2CCOCC2)ccc1OCc1ccc(Cl)cc1 (stereo not drawn) | inconclusive [inhibitor, single point] | 
21 | COc1ccc2[nH]c3c(=O)n(CCCCC(=O)N4CCC(C(N)=O)CC4)c(=S)[nH]c3c2c1 |  | inactive: 5.61%

Row | Compound | Potency | activity change, negative = inhibition
22 | Cc1ccc(C(=O)Nc2cccc(C(=O)O)c2)cc1S(=O)(=O)N1CCOCC1 | inconclusive [inhibitor, partial curve, poor fit] | 
23 | O=C(OCc1cn([C@H]2CN(CC3CCCCC3)[C@@H](c3ccc(Cl)cc3)C[C@@H]2O)nn1)c1ccccc1 | inconclusive [inhibitor, partial curve, poor fit] | 
24 | CCOC(=O)c1cnc2ccc(OC)cc2c1Nc1ccc2c(c1)OCCO2 | inconclusive [inhibitor, partial curve, poor fit] | 
25 | Cc1cc2nc(-c3cccc(NC(=O)CSc4ccc(Cl)cc4)c3)oc2cc1C |  | inactive: 39%
26 | CCN1CCN(C(c2nnnn2Cc2ccc3c(c2)OCO3)C(C)C)CC1 (stereo not drawn) | inconclusive [inhibitor, single point] | 
27 | COc1cccc(NS(=O)(=O)c2ccc3c(c2)CCCN3C(=O)C2CCC2)c1 |  | inactive: -15.7%
28 | CCOC(=O)c1cc(-c2ccc(C)cc2)n(CC(=O)NC2CCCCCC2)c1C |  | inactive: -6.47%
29 | C[C@H](c1ccccc1)N1C[C@H](COCc2ccccc2)Oc2cc(N3CCC[C@H]3C(N)=O)ccc2S1(=O)=O | inconclusive [inhibitor, single point] | 
30 | C=CCOC(=O)C1=C(C)NC(C)=C(C(=O)OCC=C)C1c1cccs1 | active: 10 µM | 
31 | O=C(/C=C/c1cn(CC(O)CN2CCCCCC2)c2ccccc12)c1ccc(Br)cc1 (stereo not drawn) | inconclusive [inhibitor, partial curve, poor fit] | 
32 | O=C(N/N=C/c1cccs1)c1n[nH]c2c1CCC2 | inconclusive [inhibitor, partial curve] | 
33 | Cc1ccc(-c2nc3ccccn3c2Nc2ccc3c(c2)OCO3)o1 | inconclusive [inhibitor, single point] | 
34 | Cc1ccc2cc(C#N)c(NCCNC(=O)C3CC3)nc2c1C |  | inactive: 0%
35 | CN1CCN(c2ccc(CNC(=O)C3Cc4c(-c5ccccc5Oc5ccccc5)ccnc4O3)cc2)CC1 (stereo not drawn) | inconclusive [inhibitor, single point] | 
36 | COc1ccc(S(=O)(=O)N2CCCCCC2)cc1NC(=O)c1c2c(nc3ccccc13)CCN(Cc1ccccc1)C2 | inconclusive [inhibitor, partial curve, poor fit] | 
37 | OC(c1ccc(Cl)cc1)C(CN1CCOCC1)c1ccccc1 (stereo not drawn) | inconclusive [inhibitor, partial curve, poor fit] | 
38 | Cc1ccc(NC(=O)C(Cc2ccccc2)n2cccc2)cc1C (stereo not drawn) | inconclusive [inhibitor, partial curve, poor fit] | 
39 | Cc1ccc(OCc2cc(C(=O)N(C)CCc3nc4ccccc4[nH]3)no2)cc1C | inconclusive [inhibitor, partial curve, poor fit] | 
40 | CC(Sc1nnnn1-c1ccc(O)cc1)C(=O)NC1CCCCC1C (stereo not drawn) | inconclusive [inhibitor, full curve, poor fit] | 
41 | O=C(Nc1ccccc1C(=O)N/N=C/c1ccncc1)c1ccccc1 |  | inactive: 0.907%
42 | CC(=O)c1cccc(NS(=O)(=O)c2ccc(N/C=C/C(=O)c3ccc(F)cc3)cc2)c1 | inconclusive [inhibitor, partial curve, poor fit] | 

Row | Compound | Potency | activity change, negative = inhibition
43 | CC(C)(C)NC(=O)c1ccc2c3c(cccc13)CC2 | inconclusive [inhibitor, single point] | 
44 | NC(=S)N/N=C/c1ccccc1OCCSc1ccc(Cl)cc1 | active: 2.82 µM | 
45 | COc1ccc(SC[C@H](Cc2ccccc2)N2CC[C@@H](C(C)(C)C)CCC2=O)cc1 | inconclusive [inhibitor, partial curve, poor fit] | 
46 | Cn1c(=O)c2cc(NC(=O)NCc3ccccc3)ccc2n1Cc1ccc(Cl)cc1 | inconclusive [inhibitor, full curve, poor fit] | 
47 | CCOC(=O)c1scc(-c2ccccc2)c1S(=O)(=O)N1CCN(c2ccccc2OC)CC1 | inconclusive [inhibitor, partial curve, poor fit] | 
48 | COc1ccc2[nH]c(C(=O)N(C)Cc3ccccc3)c(C)c2c1 | inconclusive [inhibitor, single point] | 
49 | O=C(Nc1ccc(S(=O)(=O)Nc2nccs2)cc1)c1cc(-c2ccccc2)nc2ccccc12 | inconclusive [inhibitor, partial curve, poor fit] | 
50 | CCOC(=O)N1CCN(C(=O)c2ccccc2N(Cc2ccccc2)S(=O)(=O)c2ccc(OC)cc2)CC1 | inconclusive [inhibitor, full curve, poor fit] | 
51 | CCOc1ccc2nc(NC(=O)CN3CCC(n4nnc5cc(F)ccc54)CC3)sc2c1 | inconclusive [inhibitor, single point] | 
52 | Cc1cc(Cl)c(C(=O)Nc2cccc(C(F)(F)F)c2)c(C)n1 | inconclusive [inhibitor, partial curve, poor fit] | 
53 | Cc1cc(F)ccc1-c1cc(C(=O)NC2CCCCC2)[nH]n1 | inconclusive [inhibitor, single point] | 
54 | O=C(CNc1ccc2ccccc2c1)N/N=C/c1ccc(OC(=O)/C=C/c2ccco2)cc1 | inconclusive [inhibitor, partial curve, poor fit] | 
55 | OC(C#CCN1CCCC1)(c1ccccc1)c1ccccc1 | inconclusive [inhibitor, single point] | 
56 | CCCCNc1nc2c(c(=O)n(Cc3ccc(Cl)c(Cl)c3)c(=O)n2C)n1C | inconclusive [inhibitor, full curve] | 
57 | CC(C)(C)c1ccc(C(=O)NC(Cc2c[nH]c3ccccc23)C(=O)OCC(=O)c2ccc(Cl)cc2)cc1 (stereo not drawn) | inconclusive [inhibitor, partial curve, poor fit] | 
58 | CCNC(=O)C1CCCN(C(=O)c2ccc(F)c(Cl)c2)CC1 (stereo not drawn) |  | inactive: 15.8%
59 | N=c1c2c(n(Cc3ccc(Cl)cc3)c3c1CCC3)CCC2 |  | inactive: -7.56%
60 | C=C1c2ccccc2S(=O)(=O)N(Cc2ccccc2)C1COCc1ccccc1 (stereo not drawn) | inconclusive [inhibitor, single point] | 
61 | COc1ccc(C(=O)COC(=O)COc2cccc3c2OC(C)(C)C3)c(OC)c1 |  | inactive: 9.95%
62 | COc1ccc(-c2csc(N(CCCN(C)C)C(=O)c3ccc(C(C)(C)C)cc3)n2)cc1 | inconclusive [inhibitor, single point] | 
63 | C/C(N=Nc1nc2ccccc2s1)=N\Nc1ccccc1O | inconclusive [inhibitor, single point] | 
